“And” between values parts separate entries of the source, which are not always exact repeats. Identical values can stand only once.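 Grown in 96-well plates, cells were treated for 48 hours with each compound at five concentrations. Insufficient inhibition: endpoint recorded as highest concentration tested. GI50 is the concentration that inhibits growth by half. Definition used: TGI = concentration required for complete inhibition of growth.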 The source made the active and inactive calls. No stated cut-off is given here; in the data, active means GI50 below about 0.43 µM; inactive means the rest.
System: NCI-H322M lung
Experiment: NCI anticancer screen, dose series, 48 h

| Compound | TGI | GI50 | outcome |
| --- | --- | --- | --- |
| Nc1nc(Cl)nc(NCc2ccccc2)n1 | > 100 µM |  |  |
| O=C1Nc2ccccc2C12CCCC2 | > 100 µM |  |  |
| Cc1cc2c(c3c1c1ccccc1n3C)C(=O)c1ccccc1C2=O | > 100 µM |  |  |
| CC(=O)c1c2c(cc3c1CC1(Cc4cc5c(cc4C1)CCCC5)C3)CCCC2 | > 100 µM |  |  |
| N#Cc1c2c(c(Nc3ccc(F)cc3)n3c1nc1ccccc13)CCCC2 | > 100 µM |  |  |
| Nc1cccc(CCN2CCN(CCCc3ccccc3)CC2)c1 | > 100 µM |  |  |
| CC1=C(C(=O)CC(=O)C(=O)Nc2cccc(C)c2C)Sc2ccccc2N1 | > 100 µM |  |  |
| O=C(O)COc1ccc(C(=O)/C(SS/C(C(=O)c2ccc(OCC(=O)O)c(Cl)c2Cl)=C2\C=C(c3ccc(F)cc3)SS2)=C2/C=C(c3ccc(F)cc3)SS2)c(Cl)c1Cl | > 100 µM |  |  |
| O=C1/C(=C\c2ccc(Cl)cc2)CCOc2c1ccc1ccccc21 | 79.9 µM | 20.8 µM |  |
| O=C(CSc1nnc(-c2ccccn2)s1)N/N=C/c1ccc([N+](=O)[O-])cc1 | > 100 µM |  |  |
| CCOC(=O)Cn1c(=O)[nH]c(=O)c2c1ncn2Cc1ccccc1 | > 100 µM |  |  |
| Cc1ccc(NC(=O)/C=C/c2ccccc2)c(C)c1 | > 100 µM |  |  |
| O=C(Nc1ccc2[nH]c3c(-c4ccccc4)nccc3c2c1)c1ccccc1[N+](=O)[O-] | > 100 µM |  |  |
| O=C(NC/C(Cl)=C/Cl)Nc1c2ccccc2nc2ccccc12 | > 100 µM |  |  |
| COc1ccc2cc(C(=O)CCC(=O)O)ccc2c1 | > 100 µM |  |  |
| CCC(=O)c1c(C(F)(F)F)n([O-])c2cc(N3CCNCC3)c(F)cc2[n+]1=O | 22 µM | 9.92 µM |  |
| CCc1nnc(CC)n1N1C(=O)CCC1=O | > 100 µM |  |  |
| COc1ccc(-c2c(C#N)c(=O)nc(SC)n2C2OCC(OC(C)=O)C(OC(C)=O)C2OC(C)=O)cc1 (stereo not drawn) | > 100 µM |  |  |
| Oc1c(I)cc(I)cc1CNCCN(Cc1ccccn1)Cc1ccccn1 | 2.56 µM | 0.919 µM |  |
| CC(NC(=O)OC(C)(C)C)C(=O)NC(Cc1ccccc1)C(=O)NCC(=O)ON=C1CCCC1 (stereo not drawn) | > 100 µM |  |  |
| O=C1C=C(c2[nH]c3ccccc3c2C2=CC(=O)c3ccccc3C2=O)C(=O)c2ccccc21 | > 100 µM |  |  |
| Cc1cc(C)nc(NS(=O)(=O)c2ccc(NC(=O)c3cccc4c(Nc5ccc(S(=O)(=O)Nc6nc(C)cc(C)n6)cc5)c5ccc(Cl)cc5nc34)cc2)n1 | > 100 µM |  |  |
| CSC(SC)=C(C#N)C(=O)Nc1ccc(C)cc1 | > 100 µM |  |  |
| CC(C)C(N=c1c2ccccc2n(O)c2ccccc12)C(=O)O (stereo not drawn) | > 100 µM |  |  |
| O=C(CC(=O)N1N=C(N2c3ccccc3Sc3ccccc32)CC1c1ccccc1)Nc1ccccc1Cl (stereo not drawn) | > 100 µM |  |  |

| Compound | TGI | GI50 | outcome |
| --- | --- | --- | --- |
| CCCc1cn2c(/C=N/N=C(N)N)c(-c3c(OC)ccc(OC)c3[N+](=O)[O-])nc2s1 | 31.9 µM |  |  |
| COc1ccc(C(=O)O)c(Br)c1OCc1ccccc1 | > 100 µM |  |  |
| COc1ccn(CC(=O)c2cc3ccccc3[nH]2)c(=O)n1 | > 100 µM |  |  |
| Brc1ccc(-c2[nH]c3ccccc3c2N=Nc2ccccc2)cc1 | 31.7 µM |  |  |
| COc1cc(/C=C2\C[C@H]3[C@@H]4CC=C5C[C@@H](OC(C)=O)CC[C@]5(C)[C@H]4CC[C@]3(C)\C2=N\O)cc(OC)c1OC | > 100 µM |  |  |
| CSc1nc(N)cc(Oc2ccc(-c3nc(Nc4cccc(C(F)(F)F)c4)n[nH]3)cc2)n1 | 16.3 µM | 3.58 µM |  |
| COc1ccc(C2=C(Cl)C(=O)N(c3ccc(OC)cc3OC)C(=O)C2(Cl)Cl)cc1 | 56.7 µM |  |  |
| CN(C(=O)Nc1ccc(Cl)c(Cl)c1)C1CCCC[C@@H]1N1CCCC1 (stereo partly drawn) | > 100 µM |  |  |
| CC(C)(C)OC(=O)NC(Cc1ccc(OCc2ccccc2)cn1)C(=O)N1CCCC1 (stereo not drawn) | > 100 µM |  |  |
| Nc1cccc(C2CCCc3c2[nH]c2ccccc32)c1 (stereo not drawn) | 64.3 µM |  |  |
| O=[N+]([O-])c1ccccc1N=Nc1c(O)[nH]c2ccc(S(=O)(=O)O)cc12 | > 100 µM |  |  |
| CCOP(=O)(OCC)C1CC(C)OC1=O (stereo not drawn) | > 100 µM |  |  |
| Cn1cc(C2=C(Oc3ccccc3)C(=O)NC2=O)c2ccccc21 | > 25 µM | > 25 µM |  |
| COc1ccc(C2SCc3nc4ccccc4n32)cc1 (stereo not drawn) | > 100 µM |  |  |
| C/C(=C1\SC(=NCc2cccs2)NC1=O)c1ccc2ncccc2c1 | > 25 µM | > 25 µM |  |
| COc1cccc(/C=C(\NC(C)=O)c2nc3ccc(Cl)cc3[nH]2)c1 | > 100 µM |  |  |
| COC(=O)c1cc2/c(=N/O)c3ccccc3sc2o1 | > 100 µM |  |  |
| CC(C)/C=N\N1C(N)=C(C#N)C(C#N)(C#N)C1C(C)C (stereo not drawn) | > 100 µM |  |  |
| CCN(CC)c1ccc(/C=N/NC(=O)c2ccc(S(C)(=O)=O)cc2)c(O)c1 | > 100 µM | 0.256 µM |  |
| O=C1C(Br)=CC2C1C1C3CCC3C2(Br)C12OCCO2 (stereo not drawn) | 10.8 µM | 3 µM |  |
| C=CCCCCCCCC(O)C1C[C@H](O)C(CCCCC)O1 (stereo partly drawn) | 31.8 µM |  |  |
| COC(=O)c1cc(C)n(CN(Cn2nc(C(=O)OC)cc2C)c2ccccc2)n1 | > 100 µM |  |  |
| O=[N+]([O-])c1ccc(OCc2nnc(CCCCCCCCc3nnc(COc4ccc([N+](=O)[O-])cc4)o3)o2)cc1 | > 100 µM |  |  |
| CC(OC(C)(C)C)[C@H](NC(=O)OCc1ccccc1)C(=O)NC(OCc1ccccc1)[C@H]1COC(C)(C)O1 (stereo partly drawn) | > 10 µM |  |  |
| CC(C)C1(Cl)CCC2C3(C)CCCC(C)(C(=O)O)C3CC(Cl)C2(Cl)C1Cl (stereo not drawn) | > 100 µM |  |  |

| Compound | TGI | GI50 | outcome |
| --- | --- | --- | --- |
| C[C@H](NC(=O)c1c(N)nn2cccnc12)c1cc2cccc(C#Cc3cnn(C)c3)c2c(=O)n1-c1ccccc1 | > 10 µM and 27.3 µM | 8.35 µM and 6.26 µM |  |
| Cn1cc(-c2nonc2-c2cn(C)c3ccc(F)cc23)c2ccccc21 | > 100 µM | 1.24 µM |  |
| CCN(CC)CCCNc1[nH]ncc2cc3c(nc4ccc(OC)cc43)c(C)c12 | 12.7 µM |  |  |
| COc1cc(-c2cc(/C=C3\C(=O)Nc4cc(Cl)ccc43)[nH]n2)cc(OC)c1OC | 93.8 µM | 4.66 µM |  |
| C#C[C@]1(O)CCC2C3CCc4cc(Oc5nc(F)nc(-n6c(C)nc7cc8ccccc8cc76)n5)ccc4C3CCC21C (stereo partly drawn) | > 100 µM |  |  |
| c1cc2ccc3cc4ncccc4c4ccc(c1)c2c34 | > 100 µM |  |  |
| Cn1c(=O)c2ccccc2c2ccccc21 | > 100 µM |  |  |
| COc1cc(C2CC(c3cccc(Nc4ccnc5cc(Cl)ccc45)c3)=NN2C=O)cc(OC)c1OC (stereo not drawn) | 13.6 µM | 2.24 µM |  |
| O=C(N=Nc1c(O)[nH]c2ccccc12)C(O)(c1ccccc1)c1ccccc1 | 39.3 µM |  |  |
| O=C(OCc1nc2nc(Cl)nc(N3CCOCC3)c2[nH]1)n1ccnc1 | 15.7 µM | 4.34 µM |  |
| CC(C)(C)OC(=O)N1CC(O)O[C@H](c2ccccc2)[C@@H]1c1ccccc1 (stereo partly drawn) | > 100 µM |  |  |
| CN1N=C(N)c2cn(C3OC(COP(=O)(O)O)C(O)C3O)c3ncnc1c23 (stereo not drawn) | 455 µM and 1650 µM and 809 µM |  |  |
| O=C(/C=C/c1cccs1)c1ccc(Cl)cc1Cl | 42.3 µM | 19.8 µM |  |
| CCNCC(O)COc1ccc2c(c1)[n+]([O-])nc(N)[n+]2[O-] (stereo not drawn) | > 100 µM |  |  |
| O=c1cc(-c2ccc(O)c(O)c2-c2c(O)cc(O)c3c(=O)cc(-c4ccc(O)c(O)c4)oc23)oc2cc(O)cc(O)c12 |  |  | inactive |
| COc1ccc(C2(O)C(S(=O)(=O)c3ccc(C)cc3)=Cc3ccc(OC)cc32)cc1 (stereo not drawn) | > 100 µM |  |  |
| Cc1cc(C)nc(Sc2c([N+](=O)[O-])ncn2C)n1 | > 100 µM |  |  |
| CCSc1cc(C(=O)OC)c2n(c1=O)CCCC2 | > 100 µM |  |  |
| Nc1ccc(Cc2ccc(N=Cc3ccc(OCc4cccc(COc5ccc(C=Nc6ccc(Cc7ccc(N)cc7)cc6)cc5)n4)cc3)cc2)cc1 | > 100 µM |  |  |
| N#Cc1c(-c2ccc(Cl)cc2)cc(-c2ccc(Nc3ccnc4cc(Cl)ccc34)cc2)nc1N | > 100 µM |  |  |
| CN1c2ccc(O)c(O)c2-c2cc(O)cc3c2C1CCC3 (stereo not drawn) | > 100 µM |  |  |
| COc1ccc(N2C(Cl)C(=O)C2c2c[nH]c3ccccc23)cc1 (stereo not drawn) | > 100 µM |  |  |
| CC(=O)OC1CC(OC2C(O)CC(OC3C(O)CC(OC4CCC5(C)C(CCC6C5CCC5(C)C(C7=CC(=O)OC7)C(O)CC65O)C4)OC3C)OC2C)OC(C)C1OC1OC(CO)C(O)C(O)C1O (stereo not drawn) | 1.88 µM |  |  |
| N[C@H]1C[C@@H]1c1ccc(-c2cccc(O)c2)cc1 | > 100 µM | 40.5 µM |  |
| COc1ccc(C2C(C#N)=C(N)Oc3c2sc2c(F)cccc32)cc1 (stereo not drawn) | 22.2 µM | 5.48 µM |  |

| Compound | TGI | GI50 | outcome |
| --- | --- | --- | --- |
| CC(C)(C)C(=O)C(C(=O)c1ccccc1)C(=O)C(C)(C)C | > 100 µM |  |  |
| CN(C)c1nc(N)nc(CCl)n1 | 77.8 µM |  |  |
| Cc1nn(-c2ccccc2)c2nc3c(c(C)nn3-c3ccccc3)c(-c3ccc(C(F)(F)F)cc3)c12 | > 100 µM |  |  |
| [C-]#[O+].[C-]#[O+].[C-]#[O+].[C-]#[O+].[O-]C(c1ccccc1[PH+]1OC(C(F)(F)F)(C(F)(F)F)c2ccccc21)(C(F)(F)F)C(F)(F)F.[Re] (stereo not drawn) | 23.5 µM | 10.1 µM |  |
| COc1cc2c3c(c1O)-c1c(ccc(OC)c1OC)CC3N(C)CC2 (stereo not drawn) | > 100 µM |  |  |
| Clc1ccc2c(NCCNC3CCCCC3)ccnc2c1 | 24.3 µM |  |  |
| CCOc1ccccc1N1C(=O)C(=O)C(c2nc3ccccc3s2)C(=O)C1=O | > 100 µM |  |  |
| C[C@H]1CCC/C=C/[C@@H]2C[C@H](O)C[C@H]2[C@H](O)[C@@H](S(=O)C[C@@H](N)C(=O)O)CC(=O)O1 (stereo partly drawn) | 17.4 µM | 0.104 µM |  |
| COc1ccc(NC(=O)Nc2ccccc2CNc2nc(Nc3ccc(OCCN4CCCC4)cc3)ncc2Cl)cc1 | 2.96 µM | 1.1 µM |  |
| Cc1n[nH]c(=O)n1/N=C/c1ccc([N+](=O)[O-])cc1 | > 100 µM |  |  |
| CC1(C(=O)Nc2ccc3cc4ccccc4cc3c2)CC2(C)CC(C)(C1)C(O)NC2=O (stereo not drawn) | > 100 µM |  |  |
| COc1ccc2c(c1)OCCCN(C)OC2c1ccccc1 (stereo not drawn) | > 100 µM |  |  |
| Cc1c2c(nn1-c1ccc(S/N=C3\SCC(=O)CN3Cc3ccccc3)cc1)-c1ccccc1CC2 | > 100 µM | > 100 µM |  |
| O=S(=O)(O)c1cc(N=Nc2cccc3ccccc23)c(O)c2ncccc12 | > 100 µM |  |  |
| COC(=O)/C(=N/NC(N)=O)C(C(=O)C(=O)Nc1ccc(C)cc1)c1nc2ccc(C(=O)c3ccccc3)cc2[nH]c1=O (stereo not drawn) | > 100 µM |  |  |
| Cc1ccc(S(=O)(=O)Nn2c(S)c(C#N)c(-c3ccc(N(C)C)cc3)c(C#N)c2=O)cc1 | > 100 µM |  |  |
| CCOC(=O)c1c(SC(=O)C(C)(C)Oc2ccc(Cl)cc2)n(-c2ccccc2)c(=S)n(-c2ccccc2)c1=O | 80.2 µM |  |  |
| CC(C)(C)c1ccc(S(=O)(=O)N2C(c3cccc(C4CC[C@@H](C(=O)O)N4S(=O)(=O)c4ccc(C(C)(C)C)cc4)c3)CC[C@H]2C(=O)O)cc1 (stereo partly drawn) | > 100 µM |  |  |
| COC(=O)C1(C(=O)OC)CC(=O)c2c(OC(=O)c3cccc(OC)c3C#N)ccc(OC(=O)c3cccc(OC)c3C#N)c2C1 | > 100 µM |  |  |
| c1ccc(Cc2cc(-c3ccccc3)n[nH]2)cc1 | 33.1 µM |  |  |
| Clc1ccc(Nc2nnc(CNc3ccccc3)c3ccccc23)cc1 | 18.3 µM | 3.54 µM |  |
| CC1CC(NN)=Nc2ccccc2N1 (stereo not drawn) | > 100 µM |  |  |
